# Some of the results follow. Antibody binding of pooled human sera (four to six donors per pool; dilution not stated) to peptides of the Trypanosoma cruzi antigen TSSA on microarrays. Quantile-normalised fluorescence in arbitrary units, mean of duplicate arrays; higher = more binding. No active / inactive call. The uninfected pools are read here as the healthy donors of the same country. The strongest signals lie near the top of the scale (about 60,000).
# Experiments:
# Assay in all cases: antibody binding signal (normalised fluorescence) (arbitrary fluorescence units); higher = stronger serum antibody binding to peptide
# [1] = tested on: pooled sera of chronic Chagas disease patients, Argentina
# Description: (§1)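 Microarray of 15-residue peptides over residues 30-55 of Trypanosoma cruzi TSSAII, each with 1 to 10 substitutions at naturally variable positions, probed with one serum pool per country.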
# [2] = tested on: pooled sera of chronic Chagas disease patients, Bolivia
# Description: as §1
# [3] = tested on: pooled sera of chronic Chagas disease patients, Brazil
# Description: as §1
# [4] = tested on: pooled sera of chronic Chagas disease patients, Colombia
# Description: as §1
# [5] = tested on: pooled sera of chronic Chagas disease patients, Mexico
# Description: as §1
# [6] = tested on: pooled sera of chronic Chagas disease patients, USA
# Description: as §1
# [7] = tested on: pooled sera of uninfected people, Argentina
# Description: as §1
# [8] = tested on: pooled sera of uninfected people, Bolivia
# Description: as §1
# [9] = tested on: pooled sera of uninfected people, Brazil
# Description: as §1
# [10] = tested on: pooled sera of uninfected people, Mexico
# Description: as §1
# [11] = tested on: pooled sera of uninfected people, USA
# Description: as §1
Sequence,antibody binding signal [1],antibody binding signal [2],antibody binding signal [3],antibody binding signal [4],antibody binding signal [5],antibody binding signal [6],antibody binding signal [7],antibody binding signal [8],antibody binding signal [9],antibody binding signal [10],antibody binding signal [11]
PSGKEKKAAAGETPS,7190,2790,8090,10100,12200,7600,444,408,91.2,109,150
SGKEKKTAAGGTPSP,2310,271,2080,7910,4640,4950,144,96.8,295,141,166
DNKPAAGEAPSQSGA,489,18400,29600,344,205,15400,68.8,270,323,198,81.6
KENKTAAGGTPSQSG,529,318,336,2360,353,1280,306,94.2,259,552,152
PSGKDNKTAAGEAPS,5390,2390,5620,10400,6780,8100,452,366,263,143,189
GKENKAAAGETPSPS,5470,1110,11900,8410,8990,17300,402,170,99.4,192,1300
DNKTATGEAPSQPGA,15300,35500,42300,364,645,20000,203,117,243,212,153
SGKDNKPATGETPSQ,35400,27500,38100,431,335,25900,485,786,290,1850,129
GTEKKAAAGGAPSPS,351,167,394,4530,757,868,165,373,209,107,112
TEKKTAAGGTPSPSG,1140,200,448,13200,693,2800,109,117,1060,420,385
KENKPATGGTPSPSG,373,305,1150,174,604,329,292,316,158,113,181
GTDKKAATGGTPSQS,715,525,275,3170,1020,1210,310,186,537,198,150
TSSTPPSGTEKKTAT,33300,3290,30100,454,12600,3910,869,291,139,98.8,140
KKAAAGEAPSQPGAS,1910,22800,30400,1340,178,7890,232,348,137,85,216
KEKKAAAGETPSPSG,159,192,205,155,127,761,110,80.8,89.6,85.1,246
KENKTAAGGAPSPPG,209,227,238,3400,275,611,198,111,144,97.6,156
KKAATGETPSPPGAS,344,313,8260,181,144,7170,425,273,87.8,70,499
TPPSGKENKPATGEA,33400,35600,30600,410,3410,23000,1750,1790,361,374,476

Sequence,antibody binding signal [1],antibody binding signal [2],antibody binding signal [3],antibody binding signal [4],antibody binding signal [5],antibody binding signal [6],antibody binding signal [7],antibody binding signal [8],antibody binding signal [9],antibody binding signal [10],antibody binding signal [11]
PPSGKENKPAAGEAP,9630,29500,9570,966,2360,19600,3630,3040,301,310,643
NKAAAGGAPSPPGAS,279,349,1920,3570,282,1370,932,1250,243,219,1600
GTENKPAAGGTPSPS,44900,1770,4410,1560,1600,578,413,2210,1450,315,160
ENKAAAGETPSQPGA,1770,4750,35700,219,158,3390,112,715,165,270,147
TPPSGTDKKPAAGGT,38100,9710,45400,14400,54800,3470,803,355,2140,5340,508
STPPSGKEKKTATGG,15400,299,479,2960,12200,1030,299,236,103,109,159
GKENKTAAGETPSQP,5830,1840,29100,10200,8400,16300,588,239,153,215,190
ISTPPSGKENKAAAG,29000,5340,5970,457,3830,1820,2260,952,154,147,443
PPSGTEKKPAAGETP,38600,24600,38400,861,7410,7000,1160,691,1050,325,486
SGKEKKTATGGTPSQ,2870,462,2160,3610,4070,4690,240,84.7,120,114,112
KPAAGGTPSQSGASS,160,211,350,1220,350,294,275,196,262,244,167
STPPSGKEKKPATGG,21200,780,3440,1100,28800,729,580,430,124,109,430
KENKPAAGGAPSPPG,183,244,2530,945,368,916,249,234,139,126,160
KDKKAATGEAPSQSG,10000,11200,18800,148,177,17700,229,81.7,101,86,90.6
SGTDNKAATGGAPSQ,1390,958,40900,957,636,1920,280,689,1520,196,200
SGKDNKTAAGGAPSP,463,195,802,5850,1050,2420,210,139,131,129,148
KTATGEAPSPSGASS,14000,24600,12300,152,3400,18200,279,121,164,103,250
GTEKKAATGGTPSQP,974,428,776,2080,1350,1770,483,713,539,783,181
